Data published in a collection of fitness landscapes (doi:10.1038/s41467-024-54723-y).
In all, about 18,000 sequences were measured (“TetR repression strength (sort-seq, GFP reporter)”: median about 0.23, highest 2% from about 0.68 on). This is one part of the list.

Biological target: TetR (class B, Tn10) (UniProt P04483)
Assay: TetR repression strength (sort-seq, GFP reporter) (relative to tetO2 = 1); higher = stronger repression
Conditions: E. coli
Summary of the method: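 In LB with 50 µg/mL chloramphenicol, E. coli SIG10-MAX holding a low-copy library with eight randomized operator positions between a constitutive promoter and sfGFP, plus constitutive TetR, grew for 5 h at 37 °C. FACS then sorted 10^6 cells into 13 fluorescence bins for Illumina sequencing of each bin. Repression strength equals the top bin index plus one less the read-weighted mean bin, normalized to the unaltered operator. Values from three independent transformations were averaged when reads were ≥30 in every replicate and the CV was ≤0.5.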

Chain of UniProt P04483 (P04483 whole entry): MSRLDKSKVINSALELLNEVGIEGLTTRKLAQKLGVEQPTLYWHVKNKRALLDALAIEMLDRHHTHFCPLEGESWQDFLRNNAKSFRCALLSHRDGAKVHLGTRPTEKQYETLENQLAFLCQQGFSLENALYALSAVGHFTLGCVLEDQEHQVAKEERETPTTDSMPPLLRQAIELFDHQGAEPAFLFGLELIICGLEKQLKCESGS

Sequence | TetR repression strength
TCCCATTGAGTTGCAGAGA | 0.166
TCCCATCTAGTAGTTGAGA | 0.161
TCCCGCGAAGTAACAGAGA | 0.191
TCCCGGTTAGTGGTGGAGA | 0.25
TCCCAGTGAGTCGCCGAGA | 0.0565
TCCCGCCTAGTGTCAGAGA | 0.296
TCCCTCGGAGTGAAGGAGA | 0.156
TCCCCGGGAGTACGCGAGA | 0
TCCCGTAAAGTCGCCGAGA | 0.047
TCCCCTGCAGTAAGAGAGA | 0.268
TCCCGTCCAGTGGATGAGA | 0.184
TCCCCCAGAGTCAGGGAGA | 0.336
TCCCTTATAGTTGCTGAGA | 0.0415
TCCCTAGAAGTTGGCGAGA | 0.37
TCCCGTATAGTGCGTGAGA | 0.0622
TCCCTAGAAGTGTCGGAGA | 0.152
TCCCGATCAGTGGCGGAGA | 0.027
TCCCGTAGAGTCGTGGAGA | 0.173
TCCCGCGCAGTATCCGAGA | 0.282
TCCCCACCAGTAGCTGAGA | 0.329
TCCCAGGCAGTAAGGGAGA | 0.0777
TCCCAAGTAGTGGTGGAGA | 0.261
TCCCGCCTAGTCGTCGAGA | 0.203
TCCCGGGGAGTACGCGAGA | 0.23
TCCCCCGGAGTGGTAGAGA | 0.237
TCCCTTTTAGTAACGGAGA | 0.222

Sequence | TetR repression strength
TCCCACTCAGTGTCCGAGA | 0.294
TCCCTTAGAGTGGTTGAGA | 0.393
TCCCACCGAGTTTGTGAGA | 0.206
TCCCCAGTAGTACAGGAGA | 0.231
TCCCGGCGAGTCCCGGAGA | 0.187
TCCCTGTAAGTTGAAGAGA | 0.461
TCCCCAGGAGTACAGGAGA | 0.417
TCCCGCGGAGTGGGTGAGA | 0.212
TCCCGCGAAGTGCACGAGA | 0.056
TCCCTGAAAGTCTTGGAGA | 0.185
TCCCGTGGAGTCTCAGAGA | 0.168
TCCCGCTGAGTTTCCGAGA | 0.128
TCCCGAGAAGTGGCGGAGA | 0.305
TCCCAGTTAGTGCCCGAGA | 0.338
TCCCTTAAAGTACAGGAGA | 0.125
TCCCGGAGAGTTCTCGAGA | 0.127
TCCCTGGGAGTCAATGAGA | 0.541
TCCCGTTCAGTTCGGGAGA | 0.258
TCCCGGTTAGTTAACGAGA | 0.185
TCCCTTGAAGTGTAAGAGA | 0.117
TCCCCCGCAGTAGGTGAGA | 0.174
TCCCACCCAGTAGCAGAGA | 0.382
TCCCTTGTAGTTTGTGAGA | 0.319
TCCCAGCGAGTGCGAGAGA | 0.275
TCCCATGAAGTACGCGAGA | 0.151
TCCCCTTAAGTGTACGAGA | 0.333

Sequence | TetR repression strength
TCCCCCTTAGTCGAGGAGA | 0.392
TCCCTGGGAGTGATGGAGA | 0.107
TCCCGTAGAGTGGTGGAGA | 0.152
TCCCATGAAGTCAGAGAGA | 0.231
TCCCTTCTAGTGCTGGAGA | 0.623
TCCCTCCGAGTGGTTGAGA | 0.0968
TCCCGGATAGTGGGAGAGA | 0.318
TCCCCAGCAGTGATAGAGA | 0.186
TCCCTCATAGTGTATGAGA | 0.289
TCCCGATAAGTTGGTGAGA | 0.376
TCCCCACAAGTCGTCGAGA | 0.226
TCCCAGCTAGTGGTAGAGA | 0.306
TCCCCAGGAGTGGTGGAGA | 0.223
TCCCAAGCAGTGGAGGAGA | 0.121
TCCCGTGGAGTGGCCGAGA | 0.159
TCCCGATGAGTGATTGAGA | 0.423
TCCCGCAGAGTAGTTGAGA | 0
TCCCAGGTAGTCAGAGAGA | 0.18
TCCCACAAAGTTTAAGAGA | 0.298
TCCCGAGCAGTGATAGAGA | 0.75
TCCCAGACAGTATTTGAGA | 0.274
TCCCCTACAGTGCAAGAGA | 0.367
TCCCTGCCAGTCCGTGAGA | 0.378
TCCCCGGGAGTGCAGGAGA | 0.076
TCCCTCACAGTCCATGAGA | 0.0897
TCCCACTCAGTACACGAGA | 0.212

Sequence | TetR repression strength
TCCCGTTGAGTGAAGGAGA | 0.266
TCCCCTATAGTCTTAGAGA | 0.285
TCCCTCACAGTGGCTGAGA | 0.253
TCCCATGTAGTATATGAGA | 0.156
TCCCAGGGAGTGCACGAGA | 0.128
TCCCGCGAAGTAAGTGAGA | 0.29
TCCCATAAAGTCCTTGAGA | 0.279
TCCCCTAAAGTCTGGGAGA | 0.162
TCCCCGAAAGTCGCGGAGA | 0.128
TCCCCGTGAGTGGCCGAGA | 0.153
TCCCTTGTAGTGAGTGAGA | 0.148
TCCCCTGGAGTGGCGGAGA | 0.13
TCCCTGGAAGTATGGGAGA | 0.279
TCCCGGAAAGTGAATGAGA | 0.518
TCCCACGTAGTGACCGAGA | 0.235
TCCCGGCAAGTCGGAGAGA | 0.512
TCCCGAGAAGTTATTGAGA | 0.0542
TCCCGAGAAGTAACCGAGA | 0.189
TCCCCAAGAGTCGACGAGA | 0.264
TCCCACTGAGTCACCGAGA | 0.428
TCCCGTGTAGTGTATGAGA | 0.281
TCCCTGGTAGTGCAAGAGA | 0.597
TCCCTCTAAGTGGGTGAGA | 0.123
TCCCGCCAAGTCGAAGAGA | 0.26
TCCCGAGTAGTCTGGGAGA | 0.357
TCCCTAGGAGTCTGCGAGA | 0.265

Sequence | TetR repression strength
TCCCTAGTAGTGCACGAGA | 0.0915
TCCCAACAAGTGCTGGAGA | 0.331
TCCCACCGAGTAATTGAGA | 0.284
TCCCCGACAGTTCGTGAGA | 0.16
TCCCCGGGAGTGGGGGAGA | 0.258
TCCCAGTGAGTGCGAGAGA | 0.527
TCCCGGTAAGTAGGAGAGA | 0.229
TCCCTGTAAGTGCGTGAGA | 0.162
TCCCTTTAAGTCGACGAGA | 0.285
TCCCAGCCAGTGGGGGAGA | 0.226
TCCCGAGAAGTGTAAGAGA | 0.301
TCCCTGTGAGTCACTGAGA | 0.219
TCCCAATCAGTCCAGGAGA | 0.514
TCCCTGTTAGTGATAGAGA | 0.428
TCCCGAGTAGTGTCGGAGA | 0.0933
TCCCGACCAGTGGCAGAGA | 0.261
TCCCAGCAAGTGGCTGAGA | 0.197
TCCCCATGAGTGGTTGAGA | 0.174
TCCCCTAAAGTGTCCGAGA | 0.358
TCCCTCAAAGTAGTCGAGA | 0.288
TCCCGAGTAGTCTATGAGA | 0.259
TCCCGATAAGTAGTCGAGA | 0.335
TCCCAGTTAGTTCTCGAGA | 0.446
TCCCTGCCAGTGAATGAGA | 0.344
TCCCGAGGAGTTCCAGAGA | 0.316
TCCCGACTAGTAGTGGAGA | 0.2
